# According to the supplement of paper PMC8728848:
# This is one part of the list.
# Columns and labels:
# Test in all cases: glycan array binding signal (z-score within array); higher = stronger binding
# Details in all cases: glycan notation: IUPAC condensed, linker removed
# Fuc(a1-2)Gal = target: Fuc(a1-2)Gal
# Outline: (§1)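 From the Consortium for Functional Glycomics database, 3228 arrays were curated, keeping only those whose protein sequence was available. Binding is given as a within-array Z-score averaged across arrays sharing a protein sequence and across linkers. Negative Z-scores can be read as non-binding.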
# Fuc(a1-2)Gal(b1-3)GalNAc = target: Fuc(a1-2)Gal(b1-3)GalNAc
# Outline: as §1
# [1] = target: Fuc(a1-2)Gal(b1-3)GalNAc(a1-3)[Fuc(a1-2)]Gal(b1-4)Glc
# Outline: as §1
# [2] = target: Fuc(a1-2)Gal(b1-3)GalNAc(a1-3)[Fuc(a1-2)]Gal(b1-4)GlcNAc
# Outline: as §1
# [3] = target: Fuc(a1-2)Gal(b1-3)GalNAc(b1-3)Gal
# Outline: as §1
# [4] = target: Fuc(a1-2)Gal(b1-3)GalNAc(b1-3)Gal(a1-4)Gal(b1-4)Glc
# Outline: as §1
# [5] = target: Fuc(a1-2)Gal(b1-3)GalNAc(b1-4)[Neu5Ac(a2-3)]Gal(b1-4)Glc
# Outline: as §1
# Fuc(a1-2)Gal(b1-3)GlcNAc = target: Fuc(a1-2)Gal(b1-3)GlcNAc
# Outline: as §1
# [6] = target: Fuc(a1-2)Gal(b1-3)GlcNAc(b1-2)Man(a1-3)[Fuc(a1-2)Gal(b1-3)GlcNAc(b1-2)Man(a1-6)]Man(b1-4)GlcNAc(b1-4)GlcNAc
# Outline: as §1
# [7] = target: Fuc(a1-2)Gal(b1-3)GlcNAc(b1-2)Man(a1-3)[Fuc(a1-2)Gal(b1-3)GlcNAc(b1-2)Man(a1-6)]Man(b1-4)GlcNAc(b1-4)[Fuc(a1-6)]GlcNAc
# Outline: as §1
# [8] = target: Fuc(a1-2)Gal(b1-3)GlcNAc(b1-3)Gal(b1-4)Glc
# Outline: as §1
# [9] = target: Fuc(a1-2)Gal(b1-3)GlcNAc(b1-3)GalNAc
# Outline: as §1
# [10] = target: Fuc(a1-2)Gal(b1-3)GlcNAc(b1-3)[Fuc(a1-2)Gal(b1-3)GlcNAc(b1-6)]GalNAc
# Outline: as §1
# [11] = target: Fuc(a1-2)Gal(b1-3)GlcNAc(b1-3)[Gal(b1-4)GlcNAc(b1-6)]Gal(b1-4)Glc
# Outline: as §1
# [12] = target: Fuc(a1-2)Gal(b1-3)GlcNAc(b1-3)[Neu5Ac(a2-6)Gal(b1-4)GlcNAc(b1-6)]Gal(b1-4)Glc
# Outline: as §1
# [13] = target: Fuc(a1-2)Gal(b1-3)GlcNAc6S
# Outline: as §1
# [14] = target: Fuc(a1-2)Gal(b1-3)[Fuc(a1-4)]GlcNAc
# Outline: as §1
# [15] = target: Fuc(a1-2)Gal(b1-3)[Fuc(a1-4)]GlcNAc(b1-2)Man(a1-3)[Fuc(a1-2)Gal(b1-3)[Fuc(a1-4)]GlcNAc(b1-2)Man(a1-3)]Man(b1-4)GlcNAc(b1-4)GlcNAc
# Outline: as §1
# [16] = target: Fuc(a1-2)Gal(b1-3)[Fuc(a1-4)]GlcNAc(b1-2)Man(a1-3)[Fuc(a1-2)Gal(b1-3)[Fuc(a1-4)]GlcNAc(b1-2)Man(a1-6)]Man(b1-4)GlcNAc(b1-4)[Fuc(a1-6)]GlcNAc(b1-4)[Fuc(a1-6)]GlcNAc
# Outline: as §1
# [17] = target: Fuc(a1-2)Gal(b1-3)[Fuc(a1-4)]GlcNAc(b1-3)[Fuc(a1-3)[Gal(b1-4)]GlcNAc(b1-6)]Gal(b1-4)Glc
# Outline: as §1
# [18] = target: Fuc(a1-2)Gal(b1-3)[Fuc(a1-4)]GlcNAc(b1-3)[Gal(b1-4)GlcNAc(b1-6)]Gal(b1-4)Glc
# Outline: as §1
# [19] = target: Fuc(a1-2)Gal(b1-4)Fuc(a1-3)]GlcNAc(b1-2)Man(a1-3)[Fuc(a1-2)Gal(b1-4)[Fuc(a1-3)]GlcNAc(b1-2)Man(a1-6)]Man(b1-4)GlcNAc(b1-4)GlcNAc
# Outline: as §1
# Fuc(a1-2)Gal(b1-4)Glc = target: Fuc(a1-2)Gal(b1-4)Glc
# Outline: as §1
# Fuc(a1-2)Gal(b1-4)Glc6S = target: Fuc(a1-2)Gal(b1-4)Glc6S
# Outline: as §1
# Fuc(a1-2)Gal(b1-4)GlcNAc = target: Fuc(a1-2)Gal(b1-4)GlcNAc
# Outline: as §1
# [20] = target: Fuc(a1-2)Gal(b1-4)GlcNAc(b1-2)Man
# Outline: as §1
# [21] = target: Fuc(a1-2)Gal(b1-4)GlcNAc(b1-2)Man(a1-3)[Fuc(a1-2)Gal(b1-4)GlcNAc(b1-2)Man(a1-6)]Man(b1-4)GlcNAc(b1-4)GlcNAc
# Outline: as §1
# [22] = target: Fuc(a1-2)Gal(b1-4)GlcNAc(b1-2)Man(a1-3)[Fuc(a1-2)Gal(b1-4)GlcNAc(b1-2)Man(a1-6)]Man(b1-4)GlcNAc(b1-4)[Fuc(a1-6)]GlcNAc
# Outline: as §1
# [23] = target: Fuc(a1-2)Gal(b1-4)GlcNAc(b1-2)[Fuc(a1-2)Gal(b1-4)GlcNAc(b1-4)]Man(a1-3)[Fuc(a1-2)Gal(b1-4)GlcNAc(b1-2)Man(a1-6)]Man(b1-4)GlcNAc(b1-4)GlcNAc
# Outline: as §1
# [24] = target: Fuc(a1-2)Gal(b1-4)GlcNAc(b1-3)Gal(b1-4)GlcNAc
# Outline: as §1
# [25] = target: Fuc(a1-2)Gal(b1-4)GlcNAc(b1-3)Gal(b1-4)GlcNAc(b1-2)Man(a1-3)[Fuc(a1-2)Gal(b1-4)GlcNAc(b1-3)Gal(b1-4)GlcNAc(b1-2)Man(a1-6)]Man(b1-4)GlcNAc(b1-4)GlcNAc
# Outline: as §1
# [26] = target: Fuc(a1-2)Gal(b1-4)GlcNAc(b1-3)Gal(b1-4)GlcNAc(b1-3)Gal(b1-4)GlcNAc
# Outline: as §1
# [27] = target: Fuc(a1-2)Gal(b1-4)GlcNAc(b1-3)GalNAc
# Outline: as §1
# [28] = target: Fuc(a1-2)Gal(b1-4)GlcNAc(b1-3)[Fuc(a1-2)Gal(b1-4)GlcNAc(b1-6)]GalNAc
# Outline: as §1
# [29] = target: Fuc(a1-2)Gal(b1-4)GlcNAc(b1-3)[Fuc(a1-3)[Gal(b1-4)]GlcNAc(b1-6)]Gal(b1-4)Glc
# Outline: as §1
# [30] = target: Fuc(a1-2)Gal(b1-4)GlcNAc(b1-6)GalNAc
# Outline: as §1
# [31] = target: Fuc(a1-2)Gal(b1-4)GlcNAc6S
# Outline: as §1
# [32] = target: Fuc(a1-2)Gal(b1-4)[Fuc(a1-3)]GlcNAc
# Outline: as §1
# [33] = target: Fuc(a1-2)Gal(b1-4)[Fuc(a1-3)]GlcNAc(b1-2)Man(a1-3)[Fuc(a1-2)Gal(b1-4)[Fuc(a1-3)]GlcNAc(b1-2)Man(a1-6)]Man(b1-4)GlcNAc(b1-4)[Fuc(a1-6)]GlcNAc
# Outline: as §1
# [34] = target: Fuc(a1-2)Gal(b1-4)[Fuc(a1-3)]GlcNAc(b1-2)[Fuc(a1-2)Gal(b1-4)[Fuc(a1-3)]GlcNAc(b1-4)]Man(a1-3)[Fuc(a1-2)Gal(b1-4)[Fuc(a1-3)]GlcNAc(b1-2)Man(a1-6)]Man(b1-4)GlcNAc(b1-4)GlcNAc
# Outline: as §1
# [35] = target: Fuc(a1-2)Gal(b1-4)[Fuc(a1-3)]GlcNAc(b1-3)Gal(b1-4)[Fuc(a1-3)]GlcNAc
# Outline: as §1
# [36] = target: Fuc(a1-2)Gal(b1-4)[Fuc(a1-3)]GlcNAc(b1-3)Gal(b1-4)[Fuc(a1-3)]GlcNAc(b1-3)Gal(b1-4)[Fuc(a1-3)]GlcNAc
# Outline: as §1
# [37] = target: Fuc(a1-2)Gal(b1-4)[Fuc(a1-3)]GlcNAc(b1-3)GalNAc
# Outline: as §1
# [38] = target: Fuc(a1-2)Gal(b1-4)[Fuc(a1-3)]GlcNAc(b1-3)[Neu5Ac(a2-6)Gal(b1-4)GlcNAc(b1-6)]Gal(b1-4)Glc
# Outline: as §1
# [39] = target: Fuc(a1-2)Gal3S(b1-4)GlcNAc
# Outline: as §1
binder,measurement,setting,value
Epa1to9 (Candida glabrata) (protein) MGSSHHHHHHSSGLVPRGSHMTSSNDISLASKDPTTFPLGCSPDITTPKKGLSMELYSYDFRKKGSYPCWDAAYLDPNYPRTGYKSHRLLAKVDGVTGNINFYYHATKGCTPQLGHLPASYNYPKPLTMTNFTMLLYGYFRPKVTGFHTFTISADDLLFVNFGAGNAFDCCRRDSSADHFGNYQAYAIWGSKTAKDELTVHLDAGVYYPIRLFYNNRDYHGALSFTFKTESNENTVSDFSEYFFSLDDTEEGCPGLISYD,glycan array binding signal (z-score),Fuc(a1-2)Gal,-0.439
same,glycan array binding signal (z-score),Fuc(a1-2)Gal(b1-3)GalNAc,-0.3
same,glycan array binding signal (z-score),[1],-0.35
same,glycan array binding signal (z-score),[2],-0.188
same,glycan array binding signal (z-score),[3],-0.298
same,glycan array binding signal (z-score),[4],-0.308
same,glycan array binding signal (z-score),[5],-0.155
same,glycan array binding signal (z-score),Fuc(a1-2)Gal(b1-3)GlcNAc,-0.347
same,glycan array binding signal (z-score),[6],-0.355
same,glycan array binding signal (z-score),[7],-0.333
same,glycan array binding signal (z-score),[8],-0.354
same,glycan array binding signal (z-score),[9],-0.349
same,glycan array binding signal (z-score),[10],-0.146
same,glycan array binding signal (z-score),[11],-0.07
same,glycan array binding signal (z-score),[12],-0.223
same,glycan array binding signal (z-score),[13],-0.286
same,glycan array binding signal (z-score),[14],-0.354
same,glycan array binding signal (z-score),[15],-0.263
same,glycan array binding signal (z-score),[16],-0.309
same,glycan array binding signal (z-score),[17],-1.69
same,glycan array binding signal (z-score),[18],0.003
same,glycan array binding signal (z-score),[19],-0.268
same,glycan array binding signal (z-score),Fuc(a1-2)Gal(b1-4)Glc,-0.307
same,glycan array binding signal (z-score),Fuc(a1-2)Gal(b1-4)Glc6S,-0.22
same,glycan array binding signal (z-score),Fuc(a1-2)Gal(b1-4)GlcNAc,-0.322
same,glycan array binding signal (z-score),[20],-0.323
same,glycan array binding signal (z-score),[21],-0.329
same,glycan array binding signal (z-score),[22],-0.297
same,glycan array binding signal (z-score),[23],-0.356
same,glycan array binding signal (z-score),[24],-0.347
same,glycan array binding signal (z-score),[25],-0.308
same,glycan array binding signal (z-score),[26],-0.411
same,glycan array binding signal (z-score),[27],-0.34
same,glycan array binding signal (z-score),[28],-0.282
same,glycan array binding signal (z-score),[29],-0.289
same,glycan array binding signal (z-score),[30],-0.291
same,glycan array binding signal (z-score),[31],0.019
same,glycan array binding signal (z-score),[32],-0.384
same,glycan array binding signal (z-score),[33],-0.274
same,glycan array binding signal (z-score),[34],-0.269
same,glycan array binding signal (z-score),[35],-0.349
same,glycan array binding signal (z-score),[36],-0.36
same,glycan array binding signal (z-score),[37],-0.269
same,glycan array binding signal (z-score),[38],-0.231
same,glycan array binding signal (z-score),[39],1.08
